# Measurements: article PMC12820563
# Some of the results follow. The list includes weakly bound sequences.
# Target: T1, MBP-FoxP3dN (UniProt Q99JB6)
# T1 sequence: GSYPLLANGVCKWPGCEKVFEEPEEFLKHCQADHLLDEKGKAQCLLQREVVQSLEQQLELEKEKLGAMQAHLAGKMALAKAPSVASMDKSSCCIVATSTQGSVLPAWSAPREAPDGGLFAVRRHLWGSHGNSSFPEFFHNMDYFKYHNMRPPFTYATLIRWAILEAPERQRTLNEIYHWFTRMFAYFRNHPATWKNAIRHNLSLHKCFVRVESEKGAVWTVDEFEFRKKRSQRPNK
# Test: PD-seq (MBP pull-down with sequencing)
# Details: 20 mM Tris-HCl pH 7.5, 100 mM NaCl, 1.5 mM MgCl2, 0.4 uM protein, 0.1 uM dsDNA library, 30 min, room temperature, amylose pull-down; high values mean tight binding; double strand, one strand shown
row,Sequence,binding signal (RPM ratio (pull-down/input))
1,GATGATTGTTCTCCCAGCTGATGAATTCCCTGCATCGAGTAAACAAATTTTCCTAATCTTTCTGTTCAAGCGCCATCTAC,0.746
2,GATGATTGTTCTCCCAGCTGATGAATTCCCAATCTCGAGTAAACAAATTTTCCTAATCTTTCTGTTCAAGCGCCATCTAC,0.289
3,GATGATTGTTCTCCCAGCTGATGAATTTCACCACTCGAGTAAACAAATTTTCCTAATCTTTCTGTTCAAGCGCCATCTAC,0.417
4,GATGATTGTTCTCCCAGCTGATGAATTATCTTGCTCGAGTAAACAAATTTTCCTAATCTTTCTGTTCAAGCGCCATCTAC,0.291
5,GATGATTGTTCTCCCAGCTGATGAATTCACGGCGTCGAGTAAACAAATTTTCCTAATCTTTCTGTTCAAGCGCCATCTAC,0.434
6,GATGATTGTTCTCCCAGCTGATGAATTTAGACTTTCGAGTAAACAAATTTTCCTAATCTTTCTGTTCAAGCGCCATCTAC,1.49
7,GATGATTGTTCTCCCAGCTGATGAATTTCAGGGTTCGAGTAAACAAATTTTCCTAATCTTTCTGTTCAAGCGCCATCTAC,0.328
8,GATGATTGTTCTCCCAGCTGATGAATTTTATTCGTCGAGTAAACAAATTTTCCTAATCTTTCTGTTCAAGCGCCATCTAC,0.641
9,GATGATTGTTCTCCCAGCTGATGAATTGATTGCTTCGAGTAAACAAATTTTCCTAATCTTTCTGTTCAAGCGCCATCTAC,1.45
10,GATGATTGTTCTCCCAGCTGATGAATTTATGTGGTCGAGTAAACAAATTTTCCTAATCTTTCTGTTCAAGCGCCATCTAC,3.21
11,GATGATTGTTCTCCCAGCTGATGAATTATGGTTGTCGAGTAAACAAATTTTCCTAATCTTTCTGTTCAAGCGCCATCTAC,1.81
12,GATGATTGTTCTCCCAGCTGATGAATTAAGGCGCTCGAGTAAACAAATTTTCCTAATCTTTCTGTTCAAGCGCCATCTAC,0.847
13,GATGATTGTTCTCCCAGCTGATGAATTAATCCGATCGAGTAAACAAATTTTCCTAATCTTTCTGTTCAAGCGCCATCTAC,0.184
14,GATGATTGTTCTCCCAGCTGATGAATTACGGAAGTCGAGTAAACAAATTTTCCTAATCTTTCTGTTCAAGCGCCATCTAC,0.267
15,GATGATTGTTCTCCCAGCTGATGAATTGATGAGCTCGAGTAAACAAATTTTCCTAATCTTTCTGTTCAAGCGCCATCTAC,0.366
16,GATGATTGTTCTCCCAGCTGATGAATTGGCGACGTCGAGTAAACAAATTTTCCTAATCTTTCTGTTCAAGCGCCATCTAC,0.41
17,GATGATTGTTCTCCCAGCTGATGAATTCAGAGTGTCGAGTAAACAAATTTTCCTAATCTTTCTGTTCAAGCGCCATCTAC,0.958
18,GATGATTGTTCTCCCAGCTGATGAATTGCTTTTTTCGAGTAAACAAATTTTCCTAATCTTTCTGTTCAAGCGCCATCTAC,1.46
19,GATGATTGTTCTCCCAGCTGATGAATTGCTGCGATCGAGTAAACAAATTTTCCTAATCTTTCTGTTCAAGCGCCATCTAC,0.776
20,GATGATTGTTCTCCCAGCTGATGAATTTCTCATCTCGAGTAAACAAATTTTCCTAATCTTTCTGTTCAAGCGCCATCTAC,0.314
21,GATGATTGTTCTCCCAGCTGATGAATTCCGCGTATCGAGTAAACAAATTTTCCTAATCTTTCTGTTCAAGCGCCATCTAC,1.46

row,Sequence,binding signal (RPM ratio (pull-down/input))
1,GATGATTGTTCTCCCAGCTGATGAATTACCACGCTCGAGTAAACAAATTTTCCTAATCTTTCTGTTCAAGCGCCATCTAC,0.466
2,GATGATTGTTCTCCCAGCTGATGAATTTGGCTTTTCGAGTAAACAAATTTTCCTAATCTTTCTGTTCAAGCGCCATCTAC,2.74
3,GATGATTGTTCTCCCAGCTGATGAATTCTCTGCGTCGAGTAAACAAATTTTCCTAATCTTTCTGTTCAAGCGCCATCTAC,0.356
4,GATGATTGTTCTCCCAGCTGATGAATTTCTCTCTTCGAGTAAACAAATTTTCCTAATCTTTCTGTTCAAGCGCCATCTAC,0.243
5,GATGATTGTTCTCCCAGCTGATGAATTACGAATATCGAGTAAACAAATTTTCCTAATCTTTCTGTTCAAGCGCCATCTAC,0.595
6,GATGATTGTTCTCCCAGCTGATGAATTACTAAAATCGAGTAAACAAATTTTCCTAATCTTTCTGTTCAAGCGCCATCTAC,0.262
7,GATGATTGTTCTCCCAGCTGATGAATTTAGCTTCTCGAGTAAACAAATTTTCCTAATCTTTCTGTTCAAGCGCCATCTAC,2.24
8,GATGATTGTTCTCCCAGCTGATGAATTTTCCAGGTCGAGTAAACAAATTTTCCTAATCTTTCTGTTCAAGCGCCATCTAC,0.146
9,GATGATTGTTCTCCCAGCTGATGAATTACCGGTGTCGAGTAAACAAATTTTCCTAATCTTTCTGTTCAAGCGCCATCTAC,0.434
10,GATGATTGTTCTCCCAGCTGATGAATTGATGATGTCGAGTAAACAAATTTTCCTAATCTTTCTGTTCAAGCGCCATCTAC,1
11,GATGATTGTTCTCCCAGCTGATGAATTATCGACATCGAGTAAACAAATTTTCCTAATCTTTCTGTTCAAGCGCCATCTAC,0.53
12,GATGATTGTTCTCCCAGCTGATGAATTAGTGTATTCGAGTAAACAAATTTTCCTAATCTTTCTGTTCAAGCGCCATCTAC,4.22
13,GATGATTGTTCTCCCAGCTGATGAATTGGACGTGTCGAGTAAACAAATTTTCCTAATCTTTCTGTTCAAGCGCCATCTAC,0.465
14,GATGATTGTTCTCCCAGCTGATGAATTCTTCCTTTCGAGTAAACAAATTTTCCTAATCTTTCTGTTCAAGCGCCATCTAC,0.205
15,GATGATTGTTCTCCCAGCTGATGAATTATTTTTTTCGAGTAAACAAATTTTCCTAATCTTTCTGTTCAAGCGCCATCTAC,0.916
16,GATGATTGTTCTCCCAGCTGATGAATTAGGATTATCGAGTAAACAAATTTTCCTAATCTTTCTGTTCAAGCGCCATCTAC,0.765
17,GATGATTGTTCTCCCAGCTGATGAATTGGAAAACTCGAGTAAACAAATTTTCCTAATCTTTCTGTTCAAGCGCCATCTAC,0.225
18,GATGATTGTTCTCCCAGCTGATGAATTGAACAAGTCGAGTAAACAAATTTTCCTAATCTTTCTGTTCAAGCGCCATCTAC,0.211
19,GATGATTGTTCTCCCAGCTGATGAATTGCATCGTTCGAGTAAACAAATTTTCCTAATCTTTCTGTTCAAGCGCCATCTAC,2.81
20,GATGATTGTTCTCCCAGCTGATGAATTTTAAGACTCGAGTAAACAAATTTTCCTAATCTTTCTGTTCAAGCGCCATCTAC,0.275
21,GATGATTGTTCTCCCAGCTGATGAATTTACGATTTCGAGTAAACAAATTTTCCTAATCTTTCTGTTCAAGCGCCATCTAC,0.566

row,Sequence,binding signal (RPM ratio (pull-down/input))
1,GATGATTGTTCTCCCAGCTGATGAATTGCCTTAGTCGAGTAAACAAATTTTCCTAATCTTTCTGTTCAAGCGCCATCTAC,0.544
2,GATGATTGTTCTCCCAGCTGATGAATTGTACACGTCGAGTAAACAAATTTTCCTAATCTTTCTGTTCAAGCGCCATCTAC,0.656
3,GATGATTGTTCTCCCAGCTGATGAATTACCCAATTCGAGTAAACAAATTTTCCTAATCTTTCTGTTCAAGCGCCATCTAC,0.295
4,GATGATTGTTCTCCCAGCTGATGAATTACGCTGTTCGAGTAAACAAATTTTCCTAATCTTTCTGTTCAAGCGCCATCTAC,1.09
5,GATGATTGTTCTCCCAGCTGATGAATTTACCATTTCGAGTAAACAAATTTTCCTAATCTTTCTGTTCAAGCGCCATCTAC,0.541
6,GATGATTGTTCTCCCAGCTGATGAATTTGATAGGTCGAGTAAACAAATTTTCCTAATCTTTCTGTTCAAGCGCCATCTAC,1.41
7,GATGATTGTTCTCCCAGCTGATGAATTCACAAGGTCGAGTAAACAAATTTTCCTAATCTTTCTGTTCAAGCGCCATCTAC,0.221
8,GATGATTGTTCTCCCAGCTGATGAATTGGTATTATCGAGTAAACAAATTTTCCTAATCTTTCTGTTCAAGCGCCATCTAC,1.58
9,GATGATTGTTCTCCCAGCTGATGAATTGCCGATCTCGAGTAAACAAATTTTCCTAATCTTTCTGTTCAAGCGCCATCTAC,0.528
10,GATGATTGTTCTCCCAGCTGATGAATTTATTCCTTCGAGTAAACAAATTTTCCTAATCTTTCTGTTCAAGCGCCATCTAC,0.63
11,GATGATTGTTCTCCCAGCTGATGAATTTTAGCGTTCGAGTAAACAAATTTTCCTAATCTTTCTGTTCAAGCGCCATCTAC,1.49
12,GATGATTGTTCTCCCAGCTGATGAATTCTATCCTTCGAGTAAACAAATTTTCCTAATCTTTCTGTTCAAGCGCCATCTAC,0.391
13,GATGATTGTTCTCCCAGCTGATGAATTCGATGCGTCGAGTAAACAAATTTTCCTAATCTTTCTGTTCAAGCGCCATCTAC,1.84
14,GATGATTGTTCTCCCAGCTGATGAATTTATCGCTTCGAGTAAACAAATTTTCCTAATCTTTCTGTTCAAGCGCCATCTAC,1.15
15,GATGATTGTTCTCCCAGCTGATGAATTCTACGTCTCGAGTAAACAAATTTTCCTAATCTTTCTGTTCAAGCGCCATCTAC,0.387
16,GATGATTGTTCTCCCAGCTGATGAATTCTATGGTTCGAGTAAACAAATTTTCCTAATCTTTCTGTTCAAGCGCCATCTAC,1.16
17,GATGATTGTTCTCCCAGCTGATGAATTGGAGCTTTCGAGTAAACAAATTTTCCTAATCTTTCTGTTCAAGCGCCATCTAC,0.738
18,GATGATTGTTCTCCCAGCTGATGAATTGTCGGAGTCGAGTAAACAAATTTTCCTAATCTTTCTGTTCAAGCGCCATCTAC,0.253
19,GATGATTGTTCTCCCAGCTGATGAATTGCATTTCTCGAGTAAACAAATTTTCCTAATCTTTCTGTTCAAGCGCCATCTAC,2.75
20,GATGATTGTTCTCCCAGCTGATGAATTGTGGAGGTCGAGTAAACAAATTTTCCTAATCTTTCTGTTCAAGCGCCATCTAC,0.312
21,GATGATTGTTCTCCCAGCTGATGAATTGGACGCGTCGAGTAAACAAATTTTCCTAATCTTTCTGTTCAAGCGCCATCTAC,0.629
